# Assay results reported in a collection of fitness landscapes (doi:10.1016/j.celrep.2020.107928).
# The full ranking holds about 81,000 sequences; the median of “one-hybrid fitness for binding NBS DNA” is about -0.1, and the highest 2% start at about 0.36. The list shows a part of the results.
# B1: Caulobacter ParB omega fusion; a variant is named by its letters at X, in order, B8GW30 (parent)
# chain: MESVVVGEPGMSEGRRGLGRGLSALLGEVDAAPAQAPGEQLGGSREAPIEILQRNPDQPRRTFREEDLEDLSNSIREKGVLQPILVRPSPDTAGEYQIVAGERAWRAAQRAGLKTVPIMVRELDDLAVLEIGIIENVQRADLNVLEEALSYKVLMEKFERTQENIAQTIGKSXSHVANXMRLLXLPDEVQSYLVSGELTAXHARAIAAAADPVALAKQIIEGGLSVRETEALARKAPNLSAGKSKGGRPPRVKDTDTQALESDLSSVLGLDVSIDHRGSTGTLTITYATLEQLDDLCNRLTRGI
# Variants of: B1
# Assay: one-hybrid fitness for binding NBS DNA (the Noc-binding site; scaled: cognate 1, non-cognate 0); higher = stronger binding
# Conditions: with NBS DNA site
# Procedure, shortened: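 Selection: bacterial one-hybrid in E. coli USO, HIS3 reporter with the site 19 bp from the promoter, 48 hours at 37°C on M9-minus-histidine plus 0.1 mM IPTG and 5 mM 3-AT. Libraries were Caulobacter ParB with four randomised specificity codons, sequenced on Illumina before and after selection. Fitness is the rescaled log change in variant-to-wild-type read ratio, anchored to the cognate and non-cognate sites.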
row,Variant,one-hybrid fitness for binding NBS DNA
1,HQNV,≤ 0.2
2,MPPA,≤ 0.2
3,GTPV,≤ 0.2
4,AWGG,≤ 0.2
5,PPFS,≤ 0.2
6,TTHW,≤ 0.2
7,FTVG,≤ 0.2
8,LHPT,≤ 0.2
9,MSDQ,≤ 0.2
10,RPAQ,≤ 0.2
11,SYPS,≤ 0.2
12,LGNY,≤ 0.2
13,VTHS,≤ 0.2
14,CRKS,≤ 0.2
15,DATD,≤ 0.2
16,KRQV,≤ 0.2
17,PKKA,≤ 0.2
18,CMFG,≤ 0.2
19,GPPP,≤ 0.2
20,DWKS,≤ 0.2
21,HGWD,≤ 0.2
22,NTRS,≤ 0.2
23,DSTI,≤ 0.2
24,YAME,≤ 0.2
25,STSY,≤ 0.2
26,DCKY,≤ 0.2

row,Variant,one-hybrid fitness for binding NBS DNA
1,TVFY,≤ 0.2
2,MKYY,≤ 0.2
3,YAPG,≤ 0.2
4,AVPV,≤ 0.2
5,ETIY,≤ 0.2
6,DMHV,≤ 0.2
7,HFAT,≤ 0.2
8,AQTD,≤ 0.2
9,LNPE,≤ 0.2
10,ACDS,≤ 0.2
11,SESH,≤ 0.2
12,CMLG,≤ 0.2
13,QFCG,≤ 0.2
14,SGSI,≤ 0.2
15,YADG,≤ 0.2
16,RSKQ,≤ 0.2
17,QRNT,0.822
18,TDEG,≤ 0.2
19,TALI,≤ 0.2
20,TKRD,≤ 0.2
21,QWLM,≤ 0.2
22,HKMS,≤ 0.2
23,NNRL,≤ 0.2
24,VTQD,≤ 0.2
25,MAKS,≤ 0.2
26,PQAY,≤ 0.2

row,Variant,one-hybrid fitness for binding NBS DNA
1,LVKL,≤ 0.2
2,PNYP,≤ 0.2
3,HINT,≤ 0.2
4,SNMV,≤ 0.2
5,SKMD,≤ 0.2
6,CDCF,≤ 0.2
7,TVYA,≤ 0.2
8,ILMC,≤ 0.2
9,YRQH,≤ 0.2
10,LQEA,≤ 0.2
11,GTCL,≤ 0.2
12,EVIT,≤ 0.2
13,TSTS,≤ 0.2
14,MFSR,≤ 0.2
15,HRQQ,≤ 0.2
16,NSVL,≤ 0.2
17,TRAI,≤ 0.2
18,RRGF,≤ 0.2
19,GSYT,≤ 0.2
20,ARIS,≤ 0.2
21,SLPP,≤ 0.2
22,CRIA,≤ 0.2
23,QKLC,≤ 0.2
24,VTSG,≤ 0.2
25,LCIS,≤ 0.2
26,RYFK,≤ 0.2

row,Variant,one-hybrid fitness for binding NBS DNA
1,DAVC,≤ 0.2
2,VDWP,≤ 0.2
3,RKYH,0.228
4,GRDW,≤ 0.2
5,WEKT,≤ 0.2
6,ALHP,≤ 0.2
7,RPTQ,≤ 0.2
8,GLGR,≤ 0.2
9,YRKW,≤ 0.2
10,HNGV,≤ 0.2
11,LRKF,≤ 0.2
12,PRIG,≤ 0.2
13,SPDR,≤ 0.2
14,YNNF,≤ 0.2
15,RPIE,≤ 0.2
16,RNKT,0.46
17,TTLS,≤ 0.2
18,NSKR,≤ 0.2
19,NDID,≤ 0.2
20,STVC,≤ 0.2
21,IIDE,≤ 0.2
22,YSRD,≤ 0.2
23,GAKP,≤ 0.2
24,PVSI,≤ 0.2
25,RKDP,≤ 0.2
26,RCVW,≤ 0.2

row,Variant,one-hybrid fitness for binding NBS DNA
1,YSDN,≤ 0.2
2,IWCG,≤ 0.2
3,RLQY,≤ 0.2
4,RINE,≤ 0.2
5,VDAM,≤ 0.2
6,TDTK,≤ 0.2
7,NTRC,≤ 0.2
8,LFVI,≤ 0.2
9,RESH,≤ 0.2
10,ATEI,≤ 0.2
11,QQYR,0.578
12,VYGC,≤ 0.2
13,CMSI,≤ 0.2
14,FMYS,≤ 0.2
15,FGGA,≤ 0.2
16,VLSC,≤ 0.2
17,PAHF,≤ 0.2
18,RFCM,≤ 0.2
19,VKQR,≤ 0.2
20,SILR,≤ 0.2
21,THYY,≤ 0.2
22,SPWG,≤ 0.2
23,ARNV,≤ 0.2
24,DLVM,≤ 0.2
25,QCSM,≤ 0.2
26,SVLV,≤ 0.2

row,Variant,one-hybrid fitness for binding NBS DNA
1,LYRC,≤ 0.2
2,RQDP,≤ 0.2
3,ATWE,≤ 0.2
4,TTTK,≤ 0.2
5,QLPT,0.207
6,TSVF,≤ 0.2
7,KTRK,≤ 0.2
8,AATC,≤ 0.2
9,TVVD,≤ 0.2
10,NKIS,≤ 0.2
11,RPSM,≤ 0.2
12,GRPY,≤ 0.2
13,EFNR,≤ 0.2
14,RHTR,0.459
15,QFNC,≤ 0.2
16,HMMC,≤ 0.2
17,PLGS,≤ 0.2
18,YAIF,≤ 0.2
19,RIQH,≤ 0.2
20,RNKG,≤ 0.2
21,QCLP,≤ 0.2
22,YLGN,≤ 0.2
23,LTCG,≤ 0.2
